No constants are given. Whether binding was seen depends on the method and setting. For some of these results: In cells and extracts the contact can be indirect. Some results given as binding are weak or reduced against the parent protein; the word gives no strength. For some of these results: Where a sequence is shown, tags or fusion partners need not be part of it. Values belong to the binder of their own block, whether it stands above or below them.
Experiments:
[1] = biological target: BD-DXO1 (full-length AtDXO1 fused to the DNA binding domain) (Arabidopsis thaliana) (UniProt Q8RY73); assay: two-hybrid; pairwise: one protein as BD fusion (pGBKT7), the other as AD fusion (pGADT7) in yeast Y2H Gold; growth on -Leu -Trp -His -Ade with AbA (and X-alpha-Gal in some), 3 days at 30 °C
[2] = biological target: DXO1-FLAG (35S:DXO1-FLAG) (Arabidopsis thaliana) (UniProt Q8RY73); assay: co-IP; protoplasts of 35S:DXO1-FLAG transgenic or WT plants transfected with HA fusions; lysate with or without RNase A; anti-FLAG M2 affinity gel, 2 h at 4 °C; 150 mM NaCl, 50 mM Tris-HCl pH 7.5, 10% glycerol, 0.5% Triton X-100; blots with anti-FLAG and anti-HA
[3] = biological target: BD-nDXO1 (plant-specific N-terminal extension of DXO1, 1-200 aa) (Arabidopsis thaliana) (UniProt Q8RY73); assay: two-hybrid; pairwise: one protein as BD fusion (pGBKT7), the other as AD fusion (pGADT7) in yeast Y2H Gold; growth on -Leu -Trp -His -Ade with AbA (and X-alpha-Gal in some), 3 days at 30 °C
[4] = biological target: DXO1-FLAG (DXO1pro::DXO1-FLAG transgene) (Arabidopsis thaliana) (UniProt Q8RY73); assay: co-IP; protein extracts of 12-day-old seedlings of the DXO1pro::DXO1-FLAG line and WT, with or without RNase A; anti-FLAG M2 resin; blots with anti-FLAG and anti-RNMT1 polyclonal antibodies
[5] = biological target: nYFP-DXO1 (Arabidopsis thaliana) (UniProt Q8RY73); assay: split reporter; BiFC: nYFP and cYFP fusions co-transfected into WT Arabidopsis protoplasts; YFP read by confocal microscopy 8 h after transfection

Chains of the proteins cited; added tags and fusions are not shown. Lines headed by an entry give the natural chain unless they say otherwise; changes in a name come on top. Residues count along the entry.
UniProt Q8RY73: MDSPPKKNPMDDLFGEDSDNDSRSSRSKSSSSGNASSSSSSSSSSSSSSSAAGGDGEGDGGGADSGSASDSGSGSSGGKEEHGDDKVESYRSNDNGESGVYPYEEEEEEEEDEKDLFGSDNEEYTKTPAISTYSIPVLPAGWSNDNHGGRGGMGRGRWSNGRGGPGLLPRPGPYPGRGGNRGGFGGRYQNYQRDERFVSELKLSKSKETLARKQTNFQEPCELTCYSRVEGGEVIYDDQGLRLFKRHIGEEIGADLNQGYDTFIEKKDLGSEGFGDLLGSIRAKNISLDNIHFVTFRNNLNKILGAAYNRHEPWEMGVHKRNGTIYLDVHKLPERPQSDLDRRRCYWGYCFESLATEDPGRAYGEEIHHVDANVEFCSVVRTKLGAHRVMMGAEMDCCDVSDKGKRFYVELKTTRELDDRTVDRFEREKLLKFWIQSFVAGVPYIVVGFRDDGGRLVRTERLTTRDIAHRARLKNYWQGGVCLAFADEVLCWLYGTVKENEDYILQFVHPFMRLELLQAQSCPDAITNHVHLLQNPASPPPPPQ
BD-nDXO1 (plant-specific N-terminal extension of DXO1, 1-200 aa): residues 1-200 of Q8RY73

- binding [1]: no binding
B1: AD-cRNMT1 (RNMT1 171-370 aa) (domain or fragment, UniProt Q9LHQ7 171-370)
chain: CQFAMHYSWTTEARARRALANVSALLRPGGVFIGTMPDANVIIKKLREAEGLEIGNSVYWIRFGEEYSQKKFKSSSPFGIEYVFHLEDAVDCPEWIVPFNVFKSLAEEYDLELVFVKNSHEFVHEYMKKPEFVELMRRLGALGDGSNDQSTLSADEWEAAYLYLSFVLRKRGESDGARRSGRRKNGKMNLSKDDVLYIDS

- binding [2]: no binding
B2: FCA-HA (protein, UniProt O04425 1-747)
chain: MNGPPDRVDFKPMGPHHGGSFRPMGFAYDDGFRPMGPNGGVGGEGTRSIVGARYNYPAKYPPSESPDRRRFIGKAMESDYSVRPTTPPVQQPLSGQKRGYPISDHGSFTGTDVSDRSSTVKLFVGSVPRTATEEEIRPYFEQHGNVLEVALIKDKRTGQQQGCCFVKYATSKDADRAIRALHNQITLPGGTGPVQVRYADGERERIGTLEFKLFVGSLNKQATEKEVEEIFLQFGHVEDVYLMRDEYRQSRGCGFVKYSSKETAMAAIDGLNGTYTMRGCNQPLIVRFAEPKRPKPGESREMAPPVGLGSGPRFQASGPRPTSNFGDSSGDVSHTNPWRPATSRNVGPPSNTGIRGAGSDFSPKPGQATLPSNQGGPLGGYGVPPLNPLPVPGVSSSATLQQQNRAAGQHITPLKKPLHSPQGLPLPLRPQTNFPGAQAPLQNPYAYSSQLPTSQLPPQQNISRATAPQTPLNINLRPTTVSSATVQFPPRSQQQPLQKMQHPPSELAQLLSQQTQSLQATFQSSQQAISQLQQQVQSMQQPNQNLPLSQNGRAGKQQWAGSAIPRVASTTGSTPVSYVQTAAPAVSQSVGSVKCTWTEHTSPDGFKYYYNGLTGESKWEKPEEMIVFEREQQKQQQHQEKPTIQQSQTQLQPLQQQPQQVQQQYQGQQLQQPFYSSLYPTPGASHNTQYPSLPVGQNSQFPMSGIGQNAQDYARTHIPVGAASMNDISRTQQSRQSPQELMWKNKA

- binding [1]: binds
- binding [3]: binds
B3: AD-RNMT1 (AtRNMT1 fused to the activation domain) (protein, UniProt Q9LHQ7 1-370)
chain: MKRGFSDSPSSSAPPPSSRFKSNPEGDSQFLEDETTKNFARKVADHYSRRTNQTLEEREASPIIHLKKLNNWIKSVLIQLYARPDDAVLDLACGKGGDLIKWDKARIGYYVGIDIAEGSIEDCRTRYNGDADHHQRRKKFSFPSRLLCGDCFEVELDKILEEDAPFDICSCQFAMHYSWTTEARARRALANVSALLRPGGVFIGTMPDANVIIKKLREAEGLEIGNSVYWIRFGEEYSQKKFKSSSPFGIEYVFHLEDAVDCPEWIVPFNVFKSLAEEYDLELVFVKNSHEFVHEYMKKPEFVELMRRLGALGDGSNDQSTLSADEWEAAYLYLSFVLRKRGESDGARRSGRRKNGKMNLSKDDVLYIDS

- binding [2]: binds
B4: RNMT1-HA (protein, UniProt Q9LHQ7 1-370)
chain: MKRGFSDSPSSSAPPPSSRFKSNPEGDSQFLEDETTKNFARKVADHYSRRTNQTLEEREASPIIHLKKLNNWIKSVLIQLYARPDDAVLDLACGKGGDLIKWDKARIGYYVGIDIAEGSIEDCRTRYNGDADHHQRRKKFSFPSRLLCGDCFEVELDKILEEDAPFDICSCQFAMHYSWTTEARARRALANVSALLRPGGVFIGTMPDANVIIKKLREAEGLEIGNSVYWIRFGEEYSQKKFKSSSPFGIEYVFHLEDAVDCPEWIVPFNVFKSLAEEYDLELVFVKNSHEFVHEYMKKPEFVELMRRLGALGDGSNDQSTLSADEWEAAYLYLSFVLRKRGESDGARRSGRRKNGKMNLSKDDVLYIDS

- binding [4]: binds
B5: RNMT1 from the native RNMT1 gene (protein, UniProt Q9LHQ7 1-370)
chain: MKRGFSDSPSSSAPPPSSRFKSNPEGDSQFLEDETTKNFARKVADHYSRRTNQTLEEREASPIIHLKKLNNWIKSVLIQLYARPDDAVLDLACGKGGDLIKWDKARIGYYVGIDIAEGSIEDCRTRYNGDADHHQRRKKFSFPSRLLCGDCFEVELDKILEEDAPFDICSCQFAMHYSWTTEARARRALANVSALLRPGGVFIGTMPDANVIIKKLREAEGLEIGNSVYWIRFGEEYSQKKFKSSSPFGIEYVFHLEDAVDCPEWIVPFNVFKSLAEEYDLELVFVKNSHEFVHEYMKKPEFVELMRRLGALGDGSNDQSTLSADEWEAAYLYLSFVLRKRGESDGARRSGRRKNGKMNLSKDDVLYIDS

- binding [5]: binds
B6: cYFP-RNMT1 (protein, UniProt Q9LHQ7 1-370)
chain: MKRGFSDSPSSSAPPPSSRFKSNPEGDSQFLEDETTKNFARKVADHYSRRTNQTLEEREASPIIHLKKLNNWIKSVLIQLYARPDDAVLDLACGKGGDLIKWDKARIGYYVGIDIAEGSIEDCRTRYNGDADHHQRRKKFSFPSRLLCGDCFEVELDKILEEDAPFDICSCQFAMHYSWTTEARARRALANVSALLRPGGVFIGTMPDANVIIKKLREAEGLEIGNSVYWIRFGEEYSQKKFKSSSPFGIEYVFHLEDAVDCPEWIVPFNVFKSLAEEYDLELVFVKNSHEFVHEYMKKPEFVELMRRLGALGDGSNDQSTLSADEWEAAYLYLSFVLRKRGESDGARRSGRRKNGKMNLSKDDVLYIDS

- binding [1]: binds
- binding [3]: binds
B7: AD-mRNMT1 (middle region of RNMT1, 88-207 aa) (domain or fragment, UniProt Q9LHQ7 88-207)
chain: VLDLACGKGGDLIKWDKARIGYYVGIDIAEGSIEDCRTRYNGDADHHQRRKKFSFPSRLLCGDCFEVELDKILEEDAPFDICSCQFAMHYSWTTEARARRALANVSALLRPGGVFIGTMP

- binding [1]: no binding
B8: AD-nRNMT1 (RNMT1 1-170 aa) (domain or fragment, UniProt Q9LHQ7 1-170)
chain: MKRGFSDSPSSSAPPPSSRFKSNPEGDSQFLEDETTKNFARKVADHYSRRTNQTLEEREASPIIHLKKLNNWIKSVLIQLYARPDDAVLDLACGKGGDLIKWDKARIGYYVGIDIAEGSIEDCRTRYNGDADHHQRRKKFSFPSRLLCGDCFEVELDKILEEDAPFDICS

Source: paper PMC9839713
